Source: PubChem BioAssay AID1768 (National Center for Advancing Translational Sciences (NCATS), 2009)
Out of some 270,000 compounds screened, about 620 (0.23%) were called active. Inconclusive results, whose numbers are uncertain, are shown with a selection of clear calls. The call rests on the fitted dose curve; in most records, active means well fitted inhibition curve with a large enough effect in the polarisation, with a control signal flat (not every such curve was filed as active); inconclusive means small, poorly fitted or top-dose-only effect, or effect the other way, or a change in a side signal; inactive means no such curve, though single readings can be large or run the other way; the % refers to the polarisation. Potencies of inconclusive entries are doubtful fits and often do not repeat. “Side channel” marks fits to a control or component signal instead of the main read-out.

Molecular target: Menin (Homo sapiens) (UniProt O00255)
Test: qHTS Assay for Inhibitors Targeting the Menin-MLL Interaction in MLL Related Leukemias: Competition With Texas Red Labeled MLL-derived Mutant Peptide; on FP activity change, negative = inhibition: % of control where 0% means no effect
Details: fluorescence polarization; FP activity change, negative = inhibition: at 61.6 µM (top of the series)
Potency means the concentration at half of the fitted maximal effect; tags describe the fitted curve by direction and shape or compound fluorescence and quenching.

UniProt O00255, sequence (O00255 whole entry, looked up): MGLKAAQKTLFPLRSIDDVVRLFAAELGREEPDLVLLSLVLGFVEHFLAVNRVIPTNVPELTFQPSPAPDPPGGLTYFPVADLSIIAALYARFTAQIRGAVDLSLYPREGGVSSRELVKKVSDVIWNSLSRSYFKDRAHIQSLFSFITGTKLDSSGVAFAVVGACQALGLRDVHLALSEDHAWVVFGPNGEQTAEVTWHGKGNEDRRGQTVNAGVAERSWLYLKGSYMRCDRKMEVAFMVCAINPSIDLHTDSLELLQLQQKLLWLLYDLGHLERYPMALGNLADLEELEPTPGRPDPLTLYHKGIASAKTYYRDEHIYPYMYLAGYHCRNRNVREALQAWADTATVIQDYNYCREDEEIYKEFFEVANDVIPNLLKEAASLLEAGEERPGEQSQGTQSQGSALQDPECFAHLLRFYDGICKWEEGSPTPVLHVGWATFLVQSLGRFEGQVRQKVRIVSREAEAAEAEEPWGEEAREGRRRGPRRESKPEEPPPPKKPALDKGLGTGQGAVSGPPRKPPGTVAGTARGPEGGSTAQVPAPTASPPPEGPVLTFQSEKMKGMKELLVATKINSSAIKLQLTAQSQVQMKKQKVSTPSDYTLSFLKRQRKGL

Potency, inactive:
O=c1cc(-c2cccc(F)c2)[nH]c2ccccc12

Potency, inconclusive:
COC(=O)c1ccc2c(=O)n(Cc3ccco3)c(SCC(=O)Nc3ccc(C)c(Cl)c3)nc2c1 17.8 µM [inhibitor, partial curve]
COc1ccc(OC)c(-c2cc(C(=O)Nc3cccc(Cl)c3)no2)c1 14.1 µM [quencher, side channel, partial curve]
O=C(NC(NC(=O)c1ccccc1)C(=O)c1ccccc1)c1ccccc1 28.2 µM [inhibitor, partial curve]
O=C(O)CN1C(=O)/C(=C\c2cn(-c3ccccc3)nc2-c2ccccc2)SC1=S 20 µM [quencher, side channel, partial curve]
O=C(COc1ccc(S(=O)(=O)N2CCOCC2)cc1)Nc1cccc([N+](=O)[O-])c1 31.6 µM [quencher, side channel, single point]
COc1ccc(NS(=O)(=O)c2ccc(NC(=O)c3ccc(CN4CCOCC4)cc3)cc2)cc1 11.2 µM [fluorescent, side channel, partial curve]
CN(C)S(=O)(=O)Oc1ccsc1C(=O)Nc1ccc(Cl)c(Cl)c1 3.16 µM [quencher, side channel, full curve, poor fit]
Brc1ccc(-c2csc(N3CCC(c4ccccc4)C3)n2)cc1 (configuration not stated) 7.94 µM [inhibitor, partial curve]
Cc1cc(=O)oc(C)c1C(=O)NCCN(C)Cc1ccccc1 35.5 µM [fluorescent, side channel, single point]
COc1ccc(-c2cc(C(=O)Nc3ccc(C)c(N)c3)c3ccccc3n2)cc1 15.8 µM [quencher, partial curve]
CCCCOc1ccc(NC(=O)CN2CCN(Cc3ccccc3)CC2)cc1 7.08 µM [fluorescent, side channel, partial curve]
O=C1N/C(=C/c2ccc(N3CCCC3)cc2)C(=O)N1c1ccccc1 11.2 µM [quencher, side channel, partial curve]
O=S(=O)(O)c1cc(O)c2c(N=Nc3ccc(Nc4ccccc4)c4c(S(=O)(=O)O)cccc34)cc(S(=O)(=O)O)cc2c1 10 µM [quencher, side channel, full curve]
CCCCCCc1nc2ccccc2c(=O)n1NC(=O)c1c(O)c2c(n(CC(C)C)c1=O)CCCC2 39.8 µM [inhibitor, partial curve]
Cc1c(CN2CCCC(CO)(Cc3cccc(Cl)c3)C2)cnn1C (configuration not stated) 39.8 µM [fluorescent, side channel, single point]
CNC(=O)c1ccc(-c2sc3nc(N4CCOCC4)c4c(c3c2N)CC(C)(C)OC4)o1 22.4 µM [quencher, side channel, partial curve]
CC1=C/C(=C(\c2cc(C)c(O)c(Br)c2)c2ccccc2S(=O)(=O)O)C=C(Br)C1=O 0.708 µM [fluorescent, side channel, full curve]
CCOC(=O)CN1C(=O)/C(=C/c2ccc(Cl)cc2)Oc2ccccc21 15.8 µM [fluorescent, side channel, partial curve]
Cc1ccnc(NC(=S)NC(=O)c2ccco2)c1 17.8 µM [inhibitor, partial curve]
CCOc1ccc(S(=O)(=O)N(CC(=O)N/N=C/c2ccc(-c3ccc([N+](=O)[O-])cc3)o2)c2ccccc2)cc1 7.94 µM [quencher, side channel, partial curve]
O=c1c2c(nc3c(-c4ccc(Cl)cc4)c[nH]n13)CCC2 39.8 µM [quencher, side channel, single point]
O=C(Cc1ccc(-c2ccccc2)cc1)Nc1ncccc1O 10 µM [quencher, side channel, partial curve]
CC1COc2ccccc2N1C(=O)c1ccc(Cl)cc1 (configuration not stated) 22.4 µM [fluorescent, side channel, single point]
CCc1ccc2nc3sc(C(=O)Nc4nnc(CC)s4)c(N)c3cc2c1 35.5 µM [quencher, side channel, single point]
N#CCSc1nc2scc(-c3cccs3)c2c(=O)n1CCc1ccccc1 39.8 µM [inhibitor, single point]
Cc1cccc2cc(-c3nc4ccc(C(=O)O)cc4[nH]3)c(=O)oc12 25.1 µM [quencher, side channel, partial curve]
O=C1CCC/C(=N\NC(=O)c2ccc(NS(=O)(=O)c3ccc(Br)cc3)cc2)C1 28.2 µM [quencher, side channel, single point]
NS(=O)(=O)c1ccc(NC(=O)COC(=O)/C(=C/c2cccs2)c2cccs2)cc1 22.4 µM [quencher, side channel, partial curve]
COc1ccccc1NS(=O)(=O)c1ccc(C)c(NC(=O)c2ccc(S(=O)(=O)N3CCCCCC3)cc2)c1 0.708 µM [inhibitor, full curve, poor fit]
CC(C)=NNc1nc(-c2ccccc2)cs1 28.2 µM [quencher, single point]
COc1ccc(NC(=O)/C(C#N)=C/c2ccc(Br)o2)cc1 20 µM [quencher, side channel, single point]
CCOc1cccc2cc(C(=O)NCc3ccccc3Cl)c(=O)oc12 22.4 µM [inhibitor, single point]
CC1=C/C(=C(/c2cc(C)c(O)c(Br)c2)c2ccccc2S(=O)(=O)O)C=C(Br)C1=O 3.16 µM [fluorescent, side channel, full curve]
c1cncc(-c2nnc3sc(C4CCCCC4)nn23)c1 39.8 µM [inhibitor, single point]
CCO[C@H]1OC(C(=O)N2CCN(Cc3ccc4c(c3)OCO4)CC2)=C[C@@H](c2ccccc2)[C@@H]1CCCO 8.91 µM [fluorescent, side channel, partial curve]
COCCN1C(=O)/C(=C/c2ccc(OCc3ccc(C(=O)O)cc3)c(OC)c2)SC1=Nc1ccccc1 7.08 µM [quencher, side channel, partial curve]
COc1ccc(Cc2noc(CN(C)CCN3CCc4ccccc4C3)n2)cc1OC 12.6 µM [fluorescent, side channel, partial curve]
CC(=O)Nc1cccc(OC(=O)N2CCOCC2)c1 17.8 µM [inhibitor, partial curve]
NNC(=O)CNC(c1ccccc1)c1cc(Br)ccc1NC(=O)CCN1CCOCC1 (configuration not stated) 12.6 µM [fluorescent, side channel, partial curve]
Cn1c(=O)cnc2cnc(Nc3ccccc3)nc21 11.2 µM [quencher, side channel, partial curve]
O=C(O)c1cc(Nc2cc(Cl)c3nonc3c2[N+](=O)[O-])ccc1O 14.1 µM [quencher, side channel, partial curve]
CCC(C)(CCNC(=O)Cc1ccccc1)c1ccccc1OC (configuration not stated) 8.91 µM [fluorescent, side channel, full curve]
CCn1c(/C=C/c2ccc(O)cc2)nc2ccccc2c1=O 20 µM [quencher, side channel, single point]
CC(=O)Nc1ccc(S(=O)(=O)N2CCN(c3ccc([N+](=O)[O-])c(NCCN4CCOCC4)c3)CC2)cc1 31.6 µM [quencher, side channel, partial curve]
COc1ccc(CN2CCN(C(=O)c3cccc4ccccc34)CC2)c(OC)c1OC 8.91 µM [inhibitor, partial curve]

FP activity change, negative = inhibition, inactive:
CC(=O)NC1=NC(=O)/C(=C/c2cc(C)n(-c3ccc(NC(C)=O)cc3)c2C)S1 10.1%
O=C(N/N=C/c1ccccc1)c1[nH]c2ccc(Br)cc2c1-c1ccccc1 -0.552%
Cc1ccc(N2C(=O)CC(Sc3ncccc3C(=O)O)C2=O)cc1 (configuration not stated) 8.19%
CC(=O)c1ccc(N2CCN(C(=O)c3cc(-c4ccc5c(c4)OCO5)nc4ccccc34)CC2)cc1 -17.6%
c1ccc(-c2ccc(N3CCCC4(CCNCC4)C3)cc2)cc1 -5.23%
O=C1c2cnc3nc(SCc4ccc(Cl)cc4)nn3c2CC2c3ccccc3CCN12 (configuration not stated) -15.9%
COC(=O)c1ccc(NC(=O)C2CC(=O)N(c3ccc(C)cc3)C2)cc1 (configuration not stated) -17.9%
CC(=O)N(CCP(=O)(c1ccccc1)c1ccccc1)Cc1ccco1 -12.5%
COC(=O)C1=C(C(=O)OC)[C@@H]2N(C)c3ccc(OC)cc3[C@@]23C[C@@H](C(=O)OC)N(S(=O)(=O)c2ccc(C#N)cc2)C3=N1 -13.9% [at 11.7 µM]
CSc1ccc(CNC(=O)Cn2nc(C)c3c(C)n(-c4ccc(C)cc4)nc3c2=O)cc1 5.45%
N#Cc1c(N)nc2c(c1-c1cccnc1)CCCCC2 -6.11%
